According to the supplement of paper PMC12067230:
The data scatter; read single values as rough.

Assay: amyloid nucleation score relative to library mode (yeast Sup35 reporter selection) (log enrichment difference); higher = more amyloid nucleation; sequences are the first 22 residues of the Bri2 peptide extended by up to 12 random residues
Details: random library (experiment): 1;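 active = nucleation score significantly above 0 at FDR 0.05; inactive = not significantly above 0 or absent from output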
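Note: [psi-pin-] Saccharomyces cerevisiae expressing SupN fusions, induced by 100 µM Cu2SO4, selected 7 d at 30 °C without adenine and uracil, scored by deep sequencing of output versus input.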

Row | Sequence | amyloid nucleation score
1 | EASNCFAIRHFENKFAVETLICVN | inactive
2 | EASNCFAIRHFENKFAVETLICVNARCVQWEALR | inactive
3 | EASNCFAIRHFENKFAVETLICVNAVPWCSAWGR | 8.17
4 | EASNCFAIRHFENKFAVETLICVNCGILMTYCRG | 5.07
5 | EASNCFAIRHFENKFAVETLICVNCLDHDSFAFA | 5.42
6 | EASNCFAIRHFENKFAVETLICVNCNLVVTASNC | 6.9
7 | EASNCFAIRHFENKFAVETLICVNDLVVGDSRVA | inactive
8 | EASNCFAIRHFENKFAVETLICVNDTGRPCHTGR | inactive
9 | EASNCFAIRHFENKFAVETLICVNKAMPQHSWVC | inactive
10 | EASNCFAIRHFENKFAVETLICVNKSEPSYMTLR | inactive
11 | EASNCFAIRHFENKFAVETLICVNLCCRRSFIAV | 1.95
12 | EASNCFAIRHFENKFAVETLICVNLSRWETHSDH | 5.46
13 | EASNCFAIRHFENKFAVETLICVNLYDMQTTAAL | 5.54
14 | EASNCFAIRHFENKFAVETLICVNPLARYRTLRQ | 2.81
15 | EASNCFAIRHFENKFAVETLICVNQGYLDILRGG | 6.79
16 | EASNCFAIRHFENKFAVETLICVNQPRHHEVYTG | inactive
17 | EASNCFAIRHFENKFAVETLICVNQQVFSSGSMV | 1.87
18 | EASNCFAIRHFENKFAVETLICVNRDDKCCTCGS | 7.35
19 | EASNCFAIRHFENKFAVETLICVNREVEYRGVGR | 0.275

Same assay, conditions: random library (experiment): 2

Row | Sequence | amyloid nucleation score
20 | EASNCFAIRHFENKFAVETLICVNC | inactive
21 | EASNCFAIRHFENKFAVETLICVNGA | inactive
22 | EASNCFAIRHFENKFAVETLICVNGFSILGEMLK | 6.38
23 | EASNCFAIRHFENKFAVETLICVNGVCDLFIER | 8.79
24 | EASNCFAIRHFENKFAVETLICVNHVLGRGNLLP | 0.654
25 | EASNCFAIRHFENKFAVETLICVNKFYCYPYMFA | 4.48
26 | EASNCFAIRHFENKFAVETLICVNKKHNRAGMKR | inactive
27 | EASNCFAIRHFENKFAVETLICVNLLNGHIVWLK | 0.629
28 | EASNCFAIRHFENKFAVETLICVNLMNHQNIRSW | 6.43
29 | EASNCFAIRHFENKFAVETLICVNLSGGRCEYGE | 7.13
30 | EASNCFAIRHFENKFAVETLICVNMGPSLPDPLV | 4.53
31 | EASNCFAIRHFENKFAVETLICVNMRFKLYLRGR | inactive
32 | EASNCFAIRHFENKFAVETLICVNMRVVLAFPTG | inactive
33 | EASNCFAIRHFENKFAVETLICVNNCDSLSEVIY | inactive
34 | EASNCFAIRHFENKFAVETLICVNNGVQYPVDRA | 5.18
35 | EASNCFAIRHFENKFAVETLICVNNSVNWGLLG | inactive
36 | EASNCFAIRHFENKFAVETLICVNPERYAATFRW | 3.92
37 | EASNCFAIRHFENKFAVETLICVNQRPVCRPCV | inactive
38 | EASNCFAIRHFENKFAVETLICVNRAHSWHIDGS | 3.46
39 | EASNCFAIRHFENKFAVETLICVNRCNGFSGITR | -0.0488
40 | EASNCFAIRHFENKFAVETLICVNRFGHATRV | inactive
41 | EASNCFAIRHFENKFAVETLICVNRMNMYKITRI | inactive
42 | EASNCFAIRHFENKFAVETLICVNRWHSPYIRLF | inactive

Same assay, conditions: random library (experiment): 3

Row | Sequence | amyloid nucleation score
43 | EASNCFAIRHFENKFAVETLICVNALFGLIVSCR | inactive
44 | EASNCFAIRHFENKFAVETLICVNARWMLHPELV | inactive
45 | EASNCFAIRHFENKFAVETLICVNG | inactive
46 | EASNCFAIRHFENKFAVETLICVNGGDAREWLNR | 7.34
47 | EASNCFAIRHFENKFAVETLICVNLAGEFPCACL | 7.7
48 | EASNCFAIRHFENKFAVETLICVNLWSVLGYGLE | 5.21
